These results are taken from ChEMBL document CHEMBL1201862, “PubChem BioAssay data set” (2004).

Each structure is given as a SMILES string.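 Where inhibition never reached the appropriate level, the endpoint shown equals the highest concentration tested. Otherwise, values were interpolated linearly from a five-concentration, 48-hour dose response in 96-well plates. GI50 is the concentration that inhibits growth by half.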 Calls of active or inactive are those of the source. No stated cut-off is given here; in the data, active = GI50 up to about 1.1 µM and inactive = higher.

This test has as its system NCI-H322M. Description: NCI tumour cell line growth inhibition, 48 h.
As to `Oc1cc(-c2cccc(OC(F)(F)F)c2)nc2cc3c(cc12)OCO3`, the GI50 is active: 0.217 µM.

Take `CCC(=O)OCN1C(=O)C=CC1=O`: the GI50 was inactive: > 43.9 µM.

On to `NC(S)=Nc1cc(Cl)ccc1Cl`, for which the GI50 is inactive: > 100 µM.

Consider `Cn1ncc2c(NCCc3ccccc3)nc(Cl)nc21`, for which the GI50 was inactive: 22.9 µM.

On to `COc1ccc(-c2cc(O)c3cc4c(cc3n2)OCO4)cc1OC`, for which the GI50 was inactive: > 100 µM.

For `O=C(O)c1ccc(CNCc2ccccc2)cc1`, the GI50 is inactive: > 100 µM.

On to `CN(C)CC1CCC/C(=C\c2ccc(OC(=O)/C=C/c3ccc(Cl)c(Cl)c3)cc2)C1=O` (stereo unspecified), for which the GI50 was inactive: 25.2 µM.

As to `Cc1ccc(/C=C2\NC(=S)NC2=O)cc1`, the GI50 is inactive: > 100 µM.

As for `COc1ccc(/C=C2\CN(C)CC3C2=NC(=S)NC3c2ccc(OC)cc2)cc1` (stereo unspecified), the GI50 was inactive: 4.16 µM.

Consider `CCOC(=O)c1nc2cc(C(F)(F)F)ccc2nc1Nc1ccc(Cl)c(Cl)c1`, for which the GI50 is inactive: > 100 µM.

Take `OC(c1ccc(F)cc1)(c1ccc(F)cc1)C1CC1`: the GI50 was inactive: 36.1 µM.

As to `CCOC(=O)N1CC2(C)C=CC1C(C(=O)OC)C2` (stereo unspecified), the GI50 is inactive: > 100 µM.

As to `CC[C@H]1C=CCC[C@@]2(C[C@@H]3CC[C@@H]4[C@H](C(=O)OCCCCCCCCCCCCCCCC(=O)N(CCCN)CCCCN)[C@]5(CCC[C@@H](C)O5)NC(=[N+]34)N2)O1`, the GI50 is active: 0.2 µM.

Consider `CC(=O)C(=C(c1ccccc1)c1ccccc1)c1ccccc1`, for which the GI50 is inactive: > 100 µM.

In the case of `COc1ccc2c3c1OC1C(=O)C=CC4(O)C(C2)NCC[C@@]314` (stereo partly specified), the GI50 is inactive: 7.62 µM.

Consider `Cc1cc(OP2(=O)NCc3ccncc3O2)ccc1Cl` (stereo unspecified), for which the GI50 is inactive: > 100 µM.

For the molecule `C=C(O)c1ccccc1C#Cc1ccccc1C(=O)OC`, the GI50 was inactive: > 10 µM.

For the molecule `COC(=O)Cc1c(C(=O)CC(C)(C)n2cnc(CCN3C(=O)CCC3=O)c2)[nH]c2ccccc12`, the GI50 is inactive: > 100 µM.

With `COc1cc2c(c(OC)c1OC)C(=O)[C@@H](O)[C@H]2NC(N)=O`, the GI50 was inactive: > 100 µM.

In the case of `CCOP(C)(=O)/C(Cc1ccc(OC)c(OC)c1)=N\O` (stereo unspecified), the GI50 is inactive: > 100 µM.

In the case of `CC(C)c1cc2c(O)c(c1)Cc1cc(C(C)C)cc(c1O)Cc1cc(C(C)C)cc(c1O)Cc1cc(C(C)C)cc(c1O)C2`, the GI50 is inactive: > 100 µM.

As for `O=c1c2cc(Br)cc(Br)c2[nH]c(=S)n1-c1ccccc1`, the GI50 is inactive: > 100 µM.

In the case of `OCC1OC(n2nc(-c3ccccc3)nc2-c2cnccn2)C(O)C(O)C1O` (stereo unspecified), the GI50 is inactive: > 100 µM.

Take `CCOC(=O)c1c(SCCO)n(-c2ccccc2)c(=S)n(-c2ccccc2)c1=O`: the GI50 was inactive: > 100 µM.

As for `CN(C)C(=S)/N=c1\ss/c(=N\C(=S)N(C)C)n1-c1cccc(Cl)c1`, the GI50 was inactive: > 100 µM.

Regarding `CC(C)NC(=O)OCc1c(COC(=O)NC(C)C)c(-c2cc[n+](COC(=O)C3CCCCC3)cc2)n2c1CCC2`, the GI50 was inactive: > 100 µM.

Regarding `CC(=O)CC(N)=O`, the GI50 was inactive: > 100 µM.

Take `Cc1c(NC(=S)N/N=C\C(=N/NC(=S)Nc2c(C)n(C)n(-c3ccccc3)c2=O)c2ccccc2)c(=O)n(-c2ccccc2)n1C`: the GI50 is inactive: > 100 µM.

With `[O-][n+]1c2cc(CBr)c(CBr)cc2[n+]([O-])c2c(O)cccc21`, the GI50 is inactive: 11.4 µM.

As to `CCN(CC)c1ccc2c(c1)OC(=O)C(c1nnc(-c3ccc([N+](=O)[O-])cc3)o1)C2` (stereo unspecified), the GI50 is inactive: 44.1 µM.

On to `CC(=O)Nc1ccc(NC(=O)CC(=O)Nc2ccc(NC(C)=O)cc2)cc1`, for which the GI50 is inactive: > 100 µM.

In the case of `Cc1cc(NS(=O)(=O)c2ccc(/N=N/c3c(Nc4ccccc4)nn(-c4ccc(S(=O)(=O)Nc5ccncn5)cc4)c3C)cc2)no1`, the GI50 was inactive: > 100 µM.

With `Cc1cc(C)n(C2=NS(=O)(=O)c3ccccc3N2C)n1`, the GI50 was inactive: > 100 µM.

Regarding `O=C(NC(CCCCN1C(=O)c2ccccc2C1=O)P(=O)(Oc1ccccc1)Oc1ccccc1)OCc1ccccc1` (stereo unspecified), the GI50 is inactive: > 100 µM.

As to `COC(=O)CSc1nnc(-c2ccccc2)[nH]1`, the GI50 is inactive: > 100 µM.

For `O=C(O)CC(C(=O)O)C1c2ccccc2-c2ccccc21` (stereo unspecified), the GI50 is inactive: > 100 µM.

As for `Cc1ccc(S(=O)(=O)O/N=C2\CCC\C2=C/c2ccccc2)cc1`, the GI50 is inactive: 14.1 µM.

Consider `O=C1OC(Cc2ccccc2)(N2CCCC2=O)C1c1ccccc1` (stereo unspecified), for which the GI50 was inactive: > 100 µM.

Regarding `COc1ccc(N[C@H](CSc2ccc(C)cc2)c2ccc(F)cc2)cc1`, the GI50 was inactive: > 100 µM.

As to `O=C1OC([C@H](O)c2cccnc2)c2ccccc21` (stereo partly specified), the GI50 is inactive: > 10 µM.

With `COc1c2c(c(OC)c3c(=O)cc(C/C(=N/NC(=O)C[n+]4ccccc4)C(=O)Nc4cc(C)ccc4C)oc13)OCO2`, the GI50 was inactive: > 100 µM.

For `C=C(C(=O)OC)c1cc2ccccc2n1S(=O)(=O)c1ccccc1`, the GI50 is inactive: 13.5 µM.

Consider `CC(C)=CCCC1(C)C2COC(=O)C21` (stereo unspecified), for which the GI50 was inactive: > 100 µM.

In the case of `CCCCCCCCCCCC(=O)OCC1OC(OC)C(NC(=O)N(CCCl)N=O)C(O)C1O` (stereo unspecified), the GI50 is inactive: 13.8 µM.

For `COc1ccc(N2C(=O)C3c4[nH]c5c(C)cccc5c4C4CCC(c5ccccc5)CC4C3C2=O)cc1` (stereo unspecified), the GI50 is inactive: 17.6 µM.

Take `CC1(C)CC[C@]2(C(=O)O)CC[C@]3(C)C(=CCC4=C5C[C@H](O)[C@H](O)[C@@](C)(CO)[C@@]5(C)CC[C@]43C)[C@@H]2C1`: the GI50 was inactive: 36.1 µM.

`CC1=CC(=O)N(n2c(Cc3ccc(Cl)cc3)n[nH]c2=O)C1=O`: the GI50 was inactive: > 100 µM.

Regarding `O=C(CNC(=O)OCc1ccccc1)Oc1ccccc1`, the GI50 was inactive: > 100 µM.

As to `Cc1cc(OCc2nnc3n2S(=O)(=O)c2ccccc2N3C)ccc1Cl`, the GI50 is inactive: 70.6 µM.

As for `COC(=O)C(C(=O)C(=O)Nc1cccc(O)c1)c1nc2ccc(Cl)cc2nc1O` (stereo unspecified), the GI50 is inactive: > 100 µM.

Regarding `Cc1ccc(NC(=O)CC2C(=O)Nc3ccccc3S2(=O)=O)c(C)c1` (stereo unspecified), the GI50 was inactive: 21.4 µM.

In the case of `CCC1(c2c(F)c(F)c(N)c(F)c2F)CCC(=O)NC1=O` (stereo unspecified), the GI50 is inactive: > 100 µM.

Regarding `CCOC(=O)c1nc2ccc(C(F)(F)F)cc2nc1Nc1ccc(OC)cc1`, the GI50 was inactive: > 100 µM.

With `C/C(=N\c1ccc(Cl)c(Cl)c1)c1ccncc1`, the GI50 was inactive: > 100 µM.

With `Cc1ccc(C(=O)/C=C2/Nc3ccc([N+](=O)[O-])cc3N/C2=C/C(=O)c2ccc(C)cc2)cc1`, the GI50 was inactive: 97.3 µM.

With `CN1/C(=C\N=O)C(C)(C)N(O)C1(C)C`, the GI50 is inactive: > 100 µM.

With `Cc1ccc(NC(=O)CC/C(CC(=O)c2ccc(F)cc2)=N\NC(=O)C(=O)NN)cc1C`, the GI50 was inactive: > 100 µM.

Take `COC(=O)[C@@H]1COC(=O)N1`: the GI50 was inactive: > 100 µM.

In the case of `NNC(=O)Nc1nc2ccc(NN)cc2[nH]1`, the GI50 is inactive: 62.2 µM.

Take `Cc1cccc(NC(=O)C(=O)Cc2nc3ccccc3nc2O)c1C`: the GI50 is inactive: > 100 µM.

With `CCN(CCCl)c1cc(CN(C)C)cc(NC(=O)c2cc(C(=O)Nc3cc(CN(C)C)cc(N(CC)CCCl)c3)n(C)n2)c1`, the GI50 was active: 0.794 µM.

`C[n+]1c2ccccc2c(C(=O)Nc2ccc(S(=O)(=O)Nc3ncccn3)cc2)c2ccccc21`: the GI50 is inactive: > 100 µM.

With `COCn1cnc2c(=O)n(-c3ccc(OC)cc3)c(=S)n(-c3ccc(OC)cc3)c21`, the GI50 is inactive: > 100 µM.

For `O=c1[nH]nc(-c2cccc([N+](=O)[O-])c2)[nH]1`, the GI50 was inactive: > 100 µM.

With `CCCCCCCCOCC(CO)OCCCCCCCC` (stereo unspecified), the GI50 is inactive: 19.5 µM.

As for `CC(O)C(O)C(O)C(/C=N\Nc1ccccc1)=N/Nc1ccccc1` (stereo unspecified), the GI50 was inactive: 7.57 µM.

For the molecule `C/C=C\C(CC(=O)NCCC1CN(S(=O)(=O)c2ccc(C)cc2)c2ccccc21)CC(=O)OC` (stereo unspecified), the GI50 is inactive: > 100 µM.

In the case of `CC1(O)CC(=O)c2c(cc3ccc(-c4c5c(c(O)c6c(O)cccc46)C(=O)CC(C)(O)C5)c(O)c3c2O)C1` (stereo unspecified), the GI50 was active: 0.161 µM.

Turning to `CCOC(=O)c1oc2c(OC)ccc3c2c1CCC3`, the GI50 is inactive: > 100 µM.

For `CC1OC(O[C@H]2CC[C@]3(C)[C@H]4CC=C5[C@@H]6[C@@H](C)[C@H](C)CC[C@]6(C(=O)O)CC[C@@]5(C(=O)O)[C@]4(C)CC[C@H]3C2(C)C)C(O)C(O)C1O` (stereo partly specified), the GI50 is inactive: > 75 µM.

For the molecule `CC1(C)CC(=O)C(=CN2C(=O)CNC2=S)C(=O)C1`, the GI50 is inactive: > 100 µM.

For `Brc1ccc(/C=N/C23CC4CC(CC(C4)C2)C3)cc1`, the GI50 was inactive: > 100 µM.

On to `Cc1ccc(SSCCCS(=O)O)cc1`, for which the GI50 was inactive: 45 µM.

For the molecule `CCC12C=CCN3CC[C@]4(C(=C(C(=O)OC)[C@@H]1Nc1ncnc5c1ncn5C1OC(COC(C)=O)C(OC(C)=O)C1OC(C)=O)Nc1ccccc14)C32` (stereo partly specified), the GI50 is inactive: 4.06 µM.

On to `COc1cc(C[S+]2CCCC2)c(SC)cc1C[S+]1CCCC1`, for which the GI50 is inactive: > 100 µM.

In the case of `C1CSC(=[N+]2CC[N+](=C3SCCS3)CC2)S1`, the GI50 was inactive: 42.7 µM.

Turning to `c1ccc([P+](CCSCCSCC[P+](c2ccccc2)(c2ccccc2)c2ccccc2)(c2ccccc2)c2ccccc2)cc1`, the GI50 is inactive: > 100 µM.

Consider `Cc1cc(O)c(C(C)C)cc1C1(c2cc(C(C)C)c(O)cc2C)OC(=O)c2ccccc21`, for which the GI50 is inactive: 3.58 µM.

Turning to `CSc1ccc2c(cc1=O)[C@@H](NC(=O)c1ccc(F)cc1)CCc1cc(O)c(O)c(O)c1-2`, the GI50 was inactive: > 100 µM.

Turning to `c1ccc2c3c([nH]c2c1)C1c2[nH]c4ccccc4c2CCN1CC3`, the GI50 is inactive: 2.58 µM.

With `N#Cc1c(Cl)cccc1Oc1ccc(S(=O)(=O)N/C(=N\O)Nc2ccc(Cl)cc2)cc1`, the GI50 is inactive: 15.5 µM.
